# In PMC4336329 (PLoS ONE, 2015):
# About 14,000 (4.5%) of roughly 310,000 compounds showed an effect of 50% or more. The effect is printed as a negative number. This is one part of the list. Where a SMILES comes first, the peptide text is derived from it. The star is where a group is joined. OBn = c1ccc(CO*)cc1
# Biological target: human ether-à-go-go-related gene (hERG) potassium channel (human, UniProt Q12809)
# Experiment: primary screen, population patch clamp on CHO cells stably expressing hERG
# 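Further: peak tail current of the secondary pulse compared with the same well before compound.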
# Sequence of human ether-à-go-go-related gene (hERG) potassium channel (Q12809 whole entry, looked up): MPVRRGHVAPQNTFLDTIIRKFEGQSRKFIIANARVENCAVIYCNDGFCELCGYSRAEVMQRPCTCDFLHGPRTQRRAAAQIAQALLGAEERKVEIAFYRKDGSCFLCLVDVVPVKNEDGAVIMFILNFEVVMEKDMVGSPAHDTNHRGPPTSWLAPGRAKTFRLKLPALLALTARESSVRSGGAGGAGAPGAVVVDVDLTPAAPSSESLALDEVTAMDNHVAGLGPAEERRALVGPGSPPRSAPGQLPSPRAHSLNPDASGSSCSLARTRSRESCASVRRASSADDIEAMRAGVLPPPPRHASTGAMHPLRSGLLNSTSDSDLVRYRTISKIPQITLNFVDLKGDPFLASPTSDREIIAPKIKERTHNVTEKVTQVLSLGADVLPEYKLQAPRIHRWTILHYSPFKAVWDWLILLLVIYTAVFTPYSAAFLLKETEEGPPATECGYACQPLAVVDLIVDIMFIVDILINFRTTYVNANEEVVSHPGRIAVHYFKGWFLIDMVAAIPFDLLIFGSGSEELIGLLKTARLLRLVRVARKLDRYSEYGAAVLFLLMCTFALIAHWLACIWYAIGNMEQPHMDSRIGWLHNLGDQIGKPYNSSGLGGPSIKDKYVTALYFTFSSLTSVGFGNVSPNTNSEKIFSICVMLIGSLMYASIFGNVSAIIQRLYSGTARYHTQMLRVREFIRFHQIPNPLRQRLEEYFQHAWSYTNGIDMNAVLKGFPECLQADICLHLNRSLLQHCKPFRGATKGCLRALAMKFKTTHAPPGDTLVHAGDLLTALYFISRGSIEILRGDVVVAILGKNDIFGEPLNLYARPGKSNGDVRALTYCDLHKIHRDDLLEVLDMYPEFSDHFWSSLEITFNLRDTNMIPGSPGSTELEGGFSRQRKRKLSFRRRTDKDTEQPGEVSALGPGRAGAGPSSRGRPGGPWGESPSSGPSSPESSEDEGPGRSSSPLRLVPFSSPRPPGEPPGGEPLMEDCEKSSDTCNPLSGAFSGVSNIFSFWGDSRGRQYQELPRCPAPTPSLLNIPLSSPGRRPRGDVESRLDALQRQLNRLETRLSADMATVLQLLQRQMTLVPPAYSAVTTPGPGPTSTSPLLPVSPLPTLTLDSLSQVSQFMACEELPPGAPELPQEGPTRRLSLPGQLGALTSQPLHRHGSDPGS
row,SMILES,"hERG current change (%, negative = inhibition) at 10uM [%]"
1,Cc1cc(NC(=O)CCC(=O)N(CC(=O)NC2CCCC2)Cc2cccs2)no1,16.1
2,Cc1ccc2c(c1)-c1c(cnn1CC(=O)Nc1ccccc1N1CCN(C)CC1)CO2,-44.7
3,CCC(NS(=O)(=O)c1ccc(C)cc1)C(=O)N1CCC2(O)CCCCC2C1 (stereo not drawn),9.7
4,COc1ccccc1OCCOc1ccccc1/C=N/n1cnnc1,6.14
5,O=C(N/C(=C/c1ccc(Br)cc1)C(=O)N1CCOCC1)c1ccco1,-24.1
6,Cc1cc(C)n2nc(C(=O)N(C)c3c(N)n(Cc4ccccc4)c(=O)[nH]c3=O)nc2n1,13.4
7,NC(=O)/C(=C/c1ccco1)C(N)=S,25.2
8,COC(=O)c1c(NC(=O)c2ccc(OC(C)C)cc2)sc2c1CC(C)(C)NC2(C)C,-4.04
9,Cc1ccccc1N/C(=N/S(=O)(=O)c1ccccc1)c1ccc(F)cc1,-5.7
10,CCN1CCN(c2nc3sc4c(c3c3ncnn23)CC(C)CC4)CC1 (stereo not drawn),-31.5
11,CCOc1ccc(CCNS(=O)(=O)c2cn(C)cn2)cc1OCC,20.6
12,CC1=C/C(=N\N=C2\NC(=O)C(CC(=O)Nc3ccccc3F)S2)CC(C)(C)C1 (stereo not drawn),-5.15
13,CC(=O)N1c2ccc(S(=O)(=O)N3CCC(C(=O)N4CCN(c5cccc(C(F)(F)F)c5)CC4)CC3)cc2CC1C (stereo not drawn),-5.21
14,Cc1sc(NC(=O)CSc2nnc(N)s2)c(C#N)c1C,23.2
15,COc1ccc(C2CCCN2C(=O)Nc2ccc(Cl)cc2)cc1OC (stereo not drawn),-46.7
16,COc1cc([N+](=O)[O-])ccc1NC(=O)Cn1ccsc1=N.O=C(O)C(=O)O,-23.8
17,CC1CCN(C(=O)COc2ccc(S(=O)(=O)N3CCCC3)cc2)CC1,17.1
18,CCN(CC)C(=O)c1cc2cc(Br)ccc2oc1=O,-0.273
19,OCC[C@H]1C[C@H](O)[C@@H](O)[C@]2(CCc3ccccc3CO2)O1,3.56
20,CCCCSc1nc(SCC(=O)NCc2ccco2)c2c3c(sc2n1)COC(C)(CC)C3 (stereo not drawn),0.126
21,Cc1cc(NC(=O)c2ccc(F)cc2)n(CCOC(=O)c2ccc(F)cc2)n1,-5.84
22,CCOc1ccc(N(CC)C(=O)c2nn(-c3ccc(OC)cc3)c(=O)c3c2c2ccccc2n3C)cc1,15.6

row,SMILES,"hERG current change (%, negative = inhibition) at 10uM [%]"
1,O=C(Oc1ccccc1/C=C\C(=O)c1cc2ccccc2o1)c1cccc(F)c1,7.03
2,Cc1cc2c(cc1S(=O)(=O)CCC(=O)N(C)C1CCCCC1)OCC(=O)N2,-32
3,CC(C)CC(=O)N1CCN(Cc2ccc3c(c2)OCO3)CC1,0.479
4,CCCN1CCC(NC(=O)CC2C(=O)NCCN2Cc2cccc(OC)c2)CC1 (stereo not drawn),3.29
5,CC(=O)Nc1ccc(NC(=O)CS(=O)(=O)c2cn(CC(=O)N3CCCCC3)c3ccccc23)cc1,3.67
6,COCCNc1ncnc2nc[nH]c12,9.48
7,CCN1C(=O)[C@H]2[C@@H](c3ccc(-c4ccccc4)cc3)N3CCCC[C@@]3(C(=O)OC)[C@H]2C1=O.O=C(O)C(F)(F)F,0.377
8,CCN(C(=O)CCc1nc(-c2ccc(OC)cc2)no1)c1cc(OC)ccc1OC,-5.77
9,CCCCC(CC)CNCc1cccn1CCN1CCOCC1.O=C(O)C(=O)O (stereo not drawn),5.04
10,O=C(COc1ccccc1Cl)Nc1ccc2c(c1)C(=O)NC2=O,7.52
11,COc1ccc(C(=O)NC(C(=O)NCC(=O)Nc2c(C)cccc2C)C(C)C)cc1 (stereo not drawn),10.5
12,Cc1sc(NC(=O)Cc2ccc3c(c2)OCO3)nc1-c1ccc2c(c1)CCN2C(=O)c1cccc(F)c1,3.36
13,COc1ccccc1CN1CCC(n2nccc2NC(=O)CCc2ccccc2)CC1,-23.9
14,Cc1ccc(-c2c[n+]3c(n2-c2ccccc2)CCC3)cc1.[Br-],-48.9
15,CC1CC(NC(=O)Cc2ccc(Br)cc2)CC(C)(C)C1 (stereo not drawn),4.54
16,CCOc1ccc(N/C=C/C(=O)c2ccc(OC)c(OC)c2)cc1,14.3
17,Cc1c(C(=O)NC(C)CCc2ccccc2)cccc1[N+](=O)[O-] (stereo not drawn),-18.2
18,O=C(O)c1ccc(CSCc2ccccc2F)o1,-1.86
19,CCOC(=O)C(NC(=O)c1ccccc1)(N1CCCC1=O)C(F)(F)F (stereo not drawn),8.16
20,CCCCC(=O)NC(=S)Nc1ccc(Cl)c(C(=O)O)c1,33.8
21,Cn1cnnc1Sc1cc(N2CCN(S(=O)(=O)c3ccc(Cl)c(Cl)c3)CC2)ccc1[N+](=O)[O-],-10.6
22,Cc1cc(=O)oc2ccc(OCc3ccccc3)cc12,5.11

row,SMILES,"hERG current change (%, negative = inhibition) at 10uM [%]"
1,Cc1[nH]ccc(=O)c1OCc1c(F)cccc1Cl,12.1
2,CC(NC(=O)c1ccc(F)cc1F)C1CC2CCC1C2 (stereo not drawn),1.45
3,COC(=O)c1cc(=O)nc2sc3cc(OC)ccc3n12,5.26
4,O=C(N/N=C/c1cccs1)c1c[nH]c2ccccc12,-0.817
5,CN(c1ccccc1)S(=O)(=O)c1cc(C(=O)Nc2nc3ccccc3[nH]2)ccc1Cl,1.28
6,COc1ccccc1NCc1cc(=O)oc2c(C)c(O)ccc12,13.3
7,CC(CNC(=O)CN1C(=O)NC2(CCOc3ccccc32)C1=O)c1ccccc1 (stereo not drawn),-8.13
8,COc1ccc(Cn2ccnc2CO)cc1[N+](=O)[O-].Cl,-3.16
9,Cc1cccc(N(CC(=O)NCCc2ccccc2)C(=O)c2csnn2)c1,-5.88
10,CCc1c(C2(O)CCCCC2)[nH]c2cnccc12,-5.93
11,Cc1cc(C)c2c3c(sc2n1)C(=O)N(C)CC(=O)N3,-2.3
12,Cc1cccc(Nc2nc(-c3ccccc3)c(C(=O)Nc3cccnc3)s2)c1,2
13,COC(=O)[C@H](Cc1ccccc1)NC(=O)[C@@H](N)CC(=O)OCc1ccccc1.[Cl-] (H-Asp(OBn)-Phe-OMe),18.6
14,CC(C)OCc1ccc(C(=O)N2CCN(S(=O)(=O)c3ccc(Br)s3)CC2)cc1,-19.6
15,COc1cc(NC(=O)c2cc([N+](=O)[O-])ccc2NC(=O)CNC2CCCCC2C)cc(OC)c1 (stereo not drawn),20.3
16,CSc1ccc(C(=O)C2CCCN(C(=O)c3nn(C)c(=O)c4ccccc34)C2)cc1 (stereo not drawn),-64.9
17,Cc1ccc2[nH]c3c(c2c1)CN(C(C)C)CC3,1.36
18,O=C(OCC(=O)c1c[nH]c2ccccc12)c1ccc(Br)o1,-5.45
19,CC/S(=N\S(=O)(=O)c1ccc(C)cc1)c1ccccc1 (stereo not drawn),7.45
20,CCNC(=O)N1CCNC(=O)C1CC(=O)OC (stereo not drawn),24.9
21,COc1cc(/C=N/NC(=O)c2csc3c2CCCC3)cc(OC)c1O,-8.83
22,NC(=O)c1ccc(NC(=O)C2CCCO2)cc1 (stereo not drawn),2.91

row,SMILES,"hERG current change (%, negative = inhibition) at 10uM [%]"
1,CC(Oc1ccc(Cl)cc1Cl)c1ccn[nH]1 (stereo not drawn),-7.99
2,CCOC(=O)CNC(=O)CSc1nnc(-c2c[nH]c3ccccc23)n1CC,-11.6
3,O=C(COC(=O)/C=C/c1ccc(OC(F)F)cc1)NCCN1C(=O)CSC1=O,-60.8
4,CNC(=O)/C=C/c1cc(C(=O)c2ccc(Cl)cc2Cl)cn1C,4.02
5,O=C(NCc1cccnc1)c1ccccc1Br,-3.75
6,CCn1c(=O)n(CC(=O)Nc2cc(OC)ccc2OC)c(=O)c2ccccc21,4.29
7,CCS(=O)(=O)N1CCN(C(=O)c2cccs2)CC1,9.72
8,COC(=O)C1=C(c2ccc(OC)c(OC)c2)C[C@@H]2CC[C@H]1N2C(=O)NCc1ccc(F)cc1,-0.0689
9,O=C(NCCCl)c1ccc(OCc2ccccc2)cc1Cl,2.99
10,O=C(Nc1ccccc1)c1ccc(-c2ccc(Br)cc2)o1,6.06
11,COc1ccc(C(=O)N/C(=C\c2cccc3ccccc23)C(=O)N2CCN(C)CC2)cc1,-65.6
12,COc1ccccc1/C=C/C(=O)c1cc(Br)ccc1OC(=O)c1ccco1,15.4
13,CCOC(=O)C(NCCCCl)c1ccccc1 (stereo not drawn),2.53
14,CN(C)C(=O)c1cc([N+](=O)[O-])cc([N+](=O)[O-])c1N(C)C,9.2
15,CC(c1ccco1)N(C(=O)c1ccc(Cl)c([N+](=O)[O-])c1)c1ccccn1 (stereo not drawn),2.75
16,CCOc1cc(N2CCOCC2)c(OCC)cc1NC(=O)CCS(=O)(=O)c1ccc(Cl)cc1,-35.5
17,CC(C)CNC(=O)CC(=O)NN=C1CCCC1,19.5
18,COC(=O)CSc1nnc(CCc2ccccc2)n1C,11.6
19,N#C/C(=N\Nc1ccc(S(=O)(=O)N2CCOCC2)cc1)C(N)=S,-2.88
20,COc1cc(OC)c(OC)cc1CN1CCN(C(=O)Cc2ccccc2)CC1.O=C(O)C(=O)O,5.5
21,COc1ccc(-c2nc3c(s2)CCc2onc(-c4ccc(OC)cc4)c2-3)cc1,-6.94
